# Data from PubChem BioAssay AID1508642 (National Center for Advancing Translational Sciences (NCATS), 2021).
# The whole screen tested about 43,000 compounds, of which about 200 (0.47%) were called active. Another 12% or so got no clear call; they are omitted. Calls come from the whole dose curve; as a rule, active = well fitted cell-killing curve with a large enough effect; inconclusive = small, poorly fitted or top-dose-only effect, or effect the other way; inactive = flat fitted curve, though single readings scatter. This is one part of the list.
# Experiment: Cell viability qHTS assay in S16 Pmp22-F2sN cells; note: nearly all actives have a fitted effect of over 65% in size
# Conditions: S16 Pmp22-F2sN Schwann cells (luciferase reporters placed in the Pmp22 gene) viability, CellTiter-Glo, 24 h; series mostly up to 57.5 µM; activity change, negative = cytotoxicity: at the top concentration
# How it was run: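 S16 Schwann cells carrying the Pmp22-F2sN reporter, seeded in 1536-well format, were exposed to library compounds for 24 h at 37C. Viability was read as CellTiter-Glo luminescence after 15 min at room temperature.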
# % is set by controls: 0 for no effect and ±100 for the full control effect.
row,Structure (SMILES),"activity change, negative = cytotoxicity"
1,COc1ccc(N2CCN(CC(O)COc3ccc(C)cc3C)CC2)cc1 (configuration not stated),inactive: -28.1%
2,CC1=C(c2ccc(C)cc2)S(=O)(=O)NC1=NCCCN1CCN(c2cc(C)ccc2C)CC1,inactive: 2.33%
3,Cc1ccc(Cl)cc1N1CCN(C(=O)CN2C(=O)COc3ccc(S(=O)(=O)N4CCC(C)CC4)cc32)CC1,inactive: 6.21%
4,CC(C)(C)C(=O)NC1(C(F)(F)F)NC(=O)N(c2ccc(F)cc2)C1=O (configuration not stated),inactive: 10.3%
5,COc1ccc(N2CCN(c3ncnc4c3cnn4-c3ccc(C)c(Cl)c3)CC2)cc1,inactive: 4.11%
6,Cc1nn(C(=O)c2ccccc2)c(C)c1S(=O)(=O)N1CCOCC1,inactive: 8.09%
7,COc1ccc(CNC(=O)c2ccc(-c3nc(CSc4ccc(C)cc4)c(C)o3)cc2)cc1OC,inactive: -0.971%
8,CCC(=O)N1CCc2cc(S(=O)(=O)NC(C(=O)NCc3ccccc3Cl)C(C)C)ccc21 (configuration not stated),inactive: 2.87%
9,Cc1c(C(=O)NCc2ccccc2Cl)sc2nc(-c3ccc(F)cc3)cn12,inactive: -0.26%
10,O=C(NCc1ccc(F)cc1)c1cc(Sc2ccc(F)cc2F)nc2ccccc12,inactive: -3.3%
11,CCOC(=O)C1CCN(C(=O)Cn2c(-c3cccs3)cc3cc(Cl)ccc32)CC1,inactive: 3.79%
12,Cc1c(CC(=O)N2CCCCC2)c(=O)oc2cc3occ(C(C)(C)C)c3cc12,inactive: 11.5%
13,COc1ccc(-c2cn3cccnc3n2)cc1NC(=O)COc1ccccc1,inactive: 17%
14,CCC1=Nc2cc(C(=O)NCc3ccccc3OC)ccc2Sc2ccc(Cl)cc21,inactive: -18.6%
15,COc1ccc(N2C(=O)CSC23C(=O)N(Cc2ccccc2F)c2ccccc23)cc1Cl (configuration not stated),inactive: -0.247%
16,Cc1ccc(S(=O)(=O)C2(C(=O)Nc3ccc(C)c(Cl)c3)CC2)cc1,inactive: -1.55%
17,CCC(=O)N1c2ccccc2CC1C(=O)NCCc1ccccc1Cl (configuration not stated),inactive: -5.81%
18,Cc1ccc(OCC(=O)Nc2ccc(OCc3cc(=O)n4ccsc4n3)cc2)cc1,inactive: -1.74%
19,Cc1cc(C)c2c(n1)SCC(=O)N2CC(=O)Nc1ccc(C)c(C)c1,inactive: 2.05%
20,COCCNc1ncnc2c1cnn2-c1cc(Cl)ccc1C,inactive: 3.84%
21,Cn1nc(C(=O)NCc2cccc(Cl)c2)c2c1-c1ccccc1SC2,inactive: -1.54%
22,CC(C)c1ccc(NC(=O)c2cn(C3CCCCC3)c(=O)c3c2c2ccccc2n3C)cc1,inactive: -3.83%
23,COc1ccc(Nc2nc3c(S(=O)(=O)c4ccccc4)nnn3c3ccc(Cl)cc23)c(OC)c1,inactive: -11.7%
24,Fc1ccc(-c2cc(-c3nc(-c4ccccc4)no3)[nH]n2)cc1,inactive: 0.0218%
25,COc1ccccc1C1=NS(=O)(=O)N(C)C(C(=O)Nc2cc(OC)c(OC)c(OC)c2)=C1,inactive: -26.9%
26,CC(C)Cn1cc(NC(=O)NCc2ccccc2)c2ccccc2c1=O,inactive: -2.15%
27,Cc1ccc2c(c1)c1c(c(=O)n(-c3cccc(Cl)c3)c(=O)n1CC(=O)c1ccc(Cl)cc1)n2C,inactive: 7.67%
